The supplement of paper PMC9446081
The whole screen tested about 39,000 compounds, of which about 220 (0.56%) showed activity. Some of the results follow.

These compounds were tested on Escherichia coli K-12 BW25113 (assay: relative growth (OD600 normalised to plate interquartile mean) (fraction); higher = less growth inhibition, active = 0.2 or less). Conditions: 50 µM; LB; incubation time: overnight (16-24 h).
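Note: static incubation at 37 °C against the wild-type strain, values averaged over two biological replicates.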

| Compound | relative growth |
| --- | --- |
| C[C@H]1CN([C@@H](C)CO)C(=O)c2cc(NC(=O)Cn3cnnn3)ccc2O[C@@H]1CN(C)C(=O)Nc1ccc(C(F)(F)F)cc1 | inactive: 0.943 |
| COc1ccc(S(=O)(=O)Nc2ccc3c(c2)C(=O)N([C@H](C)CO)C[C@H](C)[C@@H](CN(C)CC2CCCCC2)OCCCC[C@H](C)O3)cc1 | inactive: 0.946 |
| CO[C@@H]1CN(C)C(=O)c2ccc(NC(=O)NC(C)C)cc2OC[C@H](C)N(Cc2ccc(-c3ccccn3)cc2)C[C@H]1C | inactive: 0.988 |
| C[C@H](CO)N1C[C@H](C)[C@H](CN(C)C(=O)Nc2ccc(C(F)(F)F)cc2)OCCCC[C@H](C)Oc2ccc(NC(=O)NC3CCCCC3)cc2C1=O | inactive: 1.01 |
| C[C@@H]1CCCCO[C@H](CN(C)S(=O)(=O)c2cn(C)cn2)[C@@H](C)CN([C@H](C)CO)C(=O)c2cc(NC(=O)c3ccncc3)ccc2O1 | inactive: 1.02 |
| COc1ccc(NC(=O)Nc2ccc3c(c2)C(=O)N([C@H](C)CO)C[C@@H](C)[C@H](CN(C)Cc2ccc4c(c2)OCO4)OCCCC[C@@H](C)O3)cc1 | inactive: 0.918 |
| COC1=C2C[C@@H](C)C[C@H](OC)[C@H](O)[C@@H](C)/C=C(\C)[C@H](OC(N)=O)[C@@H](OC)/C=C/C=C(\C)C(=O)NC(=CC1=O)C2=O | inactive: 0.961 |
| CCCNCC(O)COc1ccccc1C(=O)CCc1ccccc1.Cl (stereo not drawn) | inactive: 0.929 |
| CN1CCN(C(=O)C[C@@H]2CC[C@H]3[C@@H](COC[C@H](O)CN3S(=O)(=O)c3cccc(Cl)c3)O2)CC1 | inactive: 1.01 |
| CCC(=O)Nc1nc(C(=O)NC)cs1 | inactive: 0.994 |
| CN(CP(=O)(O)CN1CCOCC1)S(C)(=O)=O | inactive: 1.02 |
| C[C@H](CO)N1C[C@H](C)[C@@H](CN(C)S(=O)(=O)c2cccs2)OCCCC[C@H](C)Oc2ccc(NC(=O)Nc3ccc4c(c3)OCO4)cc2C1=O | inactive: 1.01 |
| C[C@@H]1CN([C@H](C)CO)C(=O)c2cc(NS(=O)(=O)c3cn(C)cn3)ccc2O[C@H]1CN(C)C(=O)Nc1ccccc1 | inactive: 0.992 |
| O=C(C[C@H]1C[C@H]2c3cc(NC(=O)Nc4ccc(C(F)(F)F)cc4)ccc3O[C@H]2[C@@H](CO)O1)NCc1ccc(Cl)cc1 | inactive: 0.983 |
| CC(C)NC(=O)N(C)C[C@@H]1Oc2ccc(NC(=O)CCN3CCOCC3)cc2CC(=O)N([C@H](C)CO)C[C@H]1C | inactive: 0.993 |
| C[C@H](CO)N1C[C@H](C)[C@H](CN(C)C(=O)Nc2ccc3c(c2)OCO3)Oc2c(NS(=O)(=O)c3cn(C)cn3)cccc2C1=O | inactive: 0.99 |
| COc1ccc(NC(=O)Nc2ccc3c(c2)C(=O)N([C@H](C)CO)C[C@H](C)[C@@H](CN(C)C(=O)Nc2cccc4ccccc24)OCCCC[C@H](C)O3)cc1 | inactive: 1.03 |
| C[C@@H]1CN([C@H](C)CO)C(=O)c2cc(NC(=O)c3ccncc3)ccc2O[C@H]1CN(C)S(=O)(=O)c1cn(C)cn1 | inactive: 0.996 |
| C[C@H](CO)N1C[C@H](C)[C@@H](CN(C)S(=O)(=O)c2ccc(F)cc2)Oc2ncc(Br)cc2C1=O | inactive: 0.992 |

| Compound | relative growth |
| --- | --- |
| Cc1ccc(S(=O)(=O)N2C[C@H](O)COC[C@H]3O[C@@H](CC(=O)NCCCN(C)C)CC[C@@H]32)cc1 | inactive: 0.999 |
| C[C@H](CO)N1C[C@H](C)[C@@H](CN(C)S(=O)(=O)c2cn(C)cn2)OCc2ccccc2-c2ccccc2C1=O | inactive: 0.994 |
| C[C@H](CO)N1C[C@H](C)[C@H](CN(C)CC2CCCCC2)OCCCC[C@H](C)Oc2ccc(NC(=O)Nc3ccc4c(c3)OCO4)cc2C1=O | inactive: 1.01 |
| C=CC[C@H](CC(=O)NCCO)C(=O)N[C@H](COC(=O)[C@H](CC=C)CC(=O)OC(C)(C)C)Cc1ccccc1 | inactive: 1.02 |
| C[C@H](CO)N1C[C@H](C)[C@H](CN(C)Cc2ccc(C(F)(F)F)cc2)Oc2c(NC(=O)c3nc4ccccc4s3)cccc2C1=O | inactive: 1.04 |
| CCS(=O)(=O)NCC[C@H]1CC[C@H](NS(=O)(=O)c2cccc(F)c2)[C@H](CO)O1 | inactive: 1.01 |
| Cc1ccc(S(=O)(=O)N(C)C[C@@H]2Oc3ncc(C#Cc4ccc(F)cc4)cc3C(=O)N([C@H](C)CO)C[C@@H]2C)cc1 | inactive: 1.01 |
| C=C(C)[C@]1(O)OC(=O)C=C1OC | inactive: 1.01 |
| NCC(=O)Nc1ccc(Br)cc1 | inactive: 0.673 |
| O=C(N[C@@H](c1ccc(F)cc1)c1ccc2ccccc2n1)C1CCN(CCOc2ccc(F)cc2)CC1 | inactive: 0.973 |
| CCn1cc(C(=O)O)c(=O)c2cc(F)c(N3CCN(C)CC3)cc21.CS(=O)(=O)O | active: 0.0455 |
| Cc1noc(C)c1S(=O)(=O)Nc1ccc2c(c1)C(=O)N([C@H](C)CO)C[C@@H](C)[C@@H](CN(C)S(C)(=O)=O)OCCCC[C@H](C)O2 | inactive: 1.01 |
| Cl.N#Cc1ccc2[nH]cc(CCCCN3CCN(c4ccc5oc(C(N)=O)cc5c4)CC3)c2c1 | inactive: 0.875 |
| Cc1onc(-c2ccccc2)c1C(=O)NC1C(=O)N2C1SC(C)(C)C2C(=O)[O-].[Na+] (stereo not drawn) | inactive: 1.1 |
| C[C@H](CO)N1C[C@H](C)[C@H](CN(C)C(=O)Nc2ccc(C(F)(F)F)cc2)Oc2c(NS(=O)(=O)c3ccc(F)cc3)cccc2C1=O | inactive: 0.994 |
| C[C@@H]1CN([C@H](C)CO)C(=O)Cc2cc(NC(=O)Nc3ccc4c(c3)OCO4)ccc2O[C@H]1CN(C)C(=O)Nc1cccc2ccccc12 | inactive: 1.02 |
| C[C@@H]1CN([C@H](C)CO)C(=O)c2cc(NC(=O)Nc3cccc4ccccc34)ccc2O[C@@H](C)CCCCO[C@@H]1CN(C)C(=O)Cc1ccccc1 | inactive: 1.01 |
| Cc1noc(C)c1S(=O)(=O)N(C)C[C@H]1Oc2ccc(NC(=O)NC3CCCCC3)cc2C(=O)N([C@H](C)CO)C[C@H]1C | inactive: 0.986 |
| CN1CCN(C(=O)C[C@@H]2CC[C@@H]3[C@@H](COc4ccc(NC(=O)c5cccs5)cc4C(=O)N3C)O2)CC1 | inactive: 0.988 |
